# Measured values from PubChem BioAssay AID1745853 (National Center for Advancing Translational Sciences (NCATS), 2022).
# The list shows a part of the results. The main result of the screen is listed elsewhere. These columns were measured beside it and carry no call.
# Assays:
# Test in all cases: Primary Screen for Target Class Profiling of Small Molecule Inhibitors of Methyltransferases
# [1] = target: Glycine N-methyltransferase (Homo sapiens) (UniProt Q14749); conditions: purified enzyme, MTase-Glo SAH luminescence; measured here: GNMT inhibition; at 40 µM; stronger effect = lower value
# How it was run: (§1)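 Each enzyme was assayed with SAM and its substrate. SAH formation detected by MTase-Glo luminescence; single-point 40 uM screen[…].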
# [2] = target: Guanidinoacetate N-methyltransferase (Homo sapiens) (UniProt Q14353); conditions: purified enzyme, MTase-Glo SAH luminescence; measured here: GAMT inhibition; at 40 µM; stronger effect = lower value
# How it was run: as §1
# [3] = target: Histamine N-methyltransferase (Homo sapiens) (UniProt P50135); conditions: purified enzyme, MTase-Glo SAH luminescence; measured here: HNMT inhibition; at 40 µM; stronger effect = lower value
# How it was run: as §1
# [4] = target: Nicotinamide N-methyltransferase (Homo sapiens) (UniProt P40261); conditions: purified enzyme, MTase-Glo SAH luminescence; measured here: NNMT inhibition; at 40 µM; stronger effect = lower value
# How it was run: as §1
# [5] = target: Phenylethanolamine N-methyltransferase (Homo sapiens) (UniProt P11086); conditions: purified enzyme, MTase-Glo SAH luminescence; measured here: PNMT inhibition; at 40 µM; stronger effect = lower value
# How it was run: as §1
# % is set by controls: 0 for no effect and ±100 for the full control effect.
Compound,"activity change, negative = inhibition [1] [%]","activity change, negative = inhibition [2] [%]","activity change, negative = inhibition [3] [%]","activity change, negative = inhibition [4] [%]","activity change, negative = inhibition [5] [%]"
COc1cccc(CN2C(=O)c3cc4sccc4n3CC2(C)C(=O)NC2CCC(C)CC2)c1 (stereo not given),0.985,4.74,3.52,-15,-3.32
CCc1ccccc1N1C(=O)c2c(C(=O)OC)ncn2CC1(C)C(=O)NCCCOC(C)C (stereo not given),6.42,4,15.4,10.4,12.3
COc1ccc(C(=O)Cn2nc3n(C)c(=O)c4ccc(C(=O)NC5CCCCC5)cc4n3c2=O)cc1,2.89,0,-2.34,4.34,2.57
O=c1cc(-c2ccccc2)c2ccc(OCc3ccccc3F)cc2o1,-2.03,5.23,0.306,3.03,-10.1
CCOC(=O)c1ccc(N2C(=O)CSc3c(c4ccccc4n3C)C2C(=O)NCCCOC(C)C)cc1 (stereo not given),-0.968,-4.81,-0.519,-12.6,-5.83
CC(C)Oc1ccc(CN2C(=O)c3cc4ccccc4n3CC2(C)C(=O)NC2CCCC2)cc1 (stereo not given),-0.845,1.26,-1.28,-4.88,-1.46
COc1ccc(CNC(=O)C[C@@H]2O[C@H](CNC(=O)NC(C)C)[C@@H](O)[C@H]2O)cc1,0.06,-0.15,-0.154,-0.751,-4.42
COCC(=O)N1CCN2C(=O)N(C)C[C@H]2C1,-2.9,-4.89,0.45,-8.07,-5.11
CCc1ccc(N2C(=O)c3cc4ccccc4n3CC2(C)C(=O)NCc2ccccc2OC)cc1 (stereo not given),0.035,0,6.02,7,1.06
CC(C)CCNC(=O)C1(C)Cn2nc(C(=O)NCc3ccc(Cl)cc3)cc2C(=O)N1C (stereo not given),-7.21,0.552,-4.92,-20.6,-2.63
N#Cc1cccc(CN2CCCC2=O)c1,-2.24,-1.33,0.058,-0.243,-15.1
Cc1ccccc1CN1C(=O)c2cc3ccccc3n2CC1(C)C(=O)NCCC(C)C (stereo not given),-0.381,0.211,1.14,-7.5,-4.74
CC(C)CCNC(=O)c1ccc2c(=O)nc3c(-c4ccc(F)cc4)n[nH]n3c2c1,-5.4,-0.85,-2.03,-10.1,-8.43
O=[S+]([O-])(c1cccs1)N1CCN(c2nc3ncccc3o2)CC1,-5.25,-7.94,-2.13,-11.9,-5.04
COc1ccc(CN2C(=O)c3cc(-c4cccs4)nn3CC2(C)C(=O)NC2CCCCCC2)cc1 (stereo not given),-1.03,0.027,3.55,0.102,-0.628
CC(C)(C)CN[C@@H](Cn1cc(F)c(=O)[nH]c1=O)C(=O)O,0.362,-0.641,1.16,2.45,-0.788
Cc1ccc(C(=O)Cn2nc3n(C(C)C)c(=O)c4ccc(C(=O)NC5CCCCC5)cc4n3c2=O)c(C)c1,-6.89,3.73,-0.113,-0.026,1.84
COCC(=O)NC[C@H]1OC[C@@H](NC(C)C)[C@@H]1O,-2.66,-3.58,-3.76,-8.8,-3.04
Cc1cnn(C(C)C(=O)N2CCC3(CCC(=O)N(C4CC4)C3)CC2)c1 (stereo not given),-0.085,-2.52,1.31,-3.79,0.167
CCCN1CCN(c2ccc(C(=O)NC3(C(=O)NCC#N)CCCCC3)cc2)CC1,3.17,-7.87,-5.8,-19.2,-12.5
C[C@H]1Oc2cc(cnc2N)-c2c(nn(C)c2C#N)CN(C)C(=O)c2ccc(F)cc21,5.16,0.747,0.422,-18.6,-3.73

Compound,"activity change, negative = inhibition [1] [%]","activity change, negative = inhibition [2] [%]","activity change, negative = inhibition [3] [%]","activity change, negative = inhibition [4] [%]","activity change, negative = inhibition [5] [%]"
C/C=C(/C)C(=O)O[C@@H]1c2cc(OC)c(OC)c(OC)c2-c2c(cc3c(c2OC)OCO3)C[C@H](C)[C@]1(C)O,–,14.2,–,-6.48,6.94
C[C@@]1(c2cc(-c3cncnc3)c(F)cc2F)CCSC(N)=N1,-4.71,-1.04,2.22,-13.5,-6.71
COc1ccc(OC)c(CCNC(=O)CCc2nnc3n(Cc4ccccc4)c(=O)c4ccccc4n23)c1,-10.7,5.61,-9.72,-10.5,-2.6
CC(C)Cn1c(=O)c2ccccc2n2c(=O)n(Cc3cccc(Cl)c3)nc12,2.05,1.14,6.49,0.059,2.46
O=C(NC1CCCCC1)c1ccc2c(=O)nc3c(-c4cccc(F)c4)n[nH]n3c2c1,5.6,1.21,5.2,8.07,2.3
COc1cccc(-c2cc(C(=O)N3CCN(c4ncccn4)CC3)c3cnn(C)c3n2)c1,-8.72,-5.11,-8.07,-19,-11.3
CCc1cnn2c(NCc3ccc[n+]([O-])c3)cc(N3CCCC[C@H]3CCO)nc12,–,3.93,–,-21.1,1.97
C=C1CC23CC1CCC2C12OC(=O)C(C)(C(O)C(O)C1O)C2C3C(=O)O (stereo not given),2.86,3.67,10.6,-7.21,1.33
C=CCC1=C[C@]2(OC)[C@H](C)[C@@H](c3ccc(OC)c(OC)c3)O[C@]2(OC)CC1=O,2.44,-2.56,7.04,-15.1,2.4
O=C(c1ccc2c(=O)nc3c(-c4ccccc4)n[nH]n3c2c1)N1CCN(c2ccccc2F)CC1,-0.562,5.62,-0.179,4.03,3.45
O=C(NC1C[C@H]2CC[C@@H](C1)N2C(=O)c1ccn[nH]1)c1ccncc1 (stereo not given in full),-0.153,0.046,1.44,-3.25,2.6
COCCCNC(=O)C1(C)Cn2nc(-c3ccccc3)cc2C(=O)N1c1cccc(SC)c1 (stereo not given),-2.64,-0.245,0.579,-1.03,-4.56
COCCn1c2c(c(=O)n1-c1ccccc1)CCN(C(=O)c1cc3ccccc3n1C)C2,-4.4,0.672,-1.36,-10.1,-3.19
CCN1C(=O)c2c(C(=O)NCCc3ccc(C)cc3)ncn2CC1(C)C(=O)NC1CCCC1 (stereo not given),-3.82,-10.3,2.98,-5.39,-0.674
FC1(F)CN[C@H](c2nnc(C3CC3)o2)C1,-7.74,-7.24,-4.96,-17.4,-11.9
Cc1ccc(NC(=O)N2CCn3cccc3C2C)cc1F (stereo not given),1.95,0.444,11.7,-0.092,9.26
CC(CCc1ccccc1)NC(=O)CCn1ccn2nc3c(c2c1=O)CCCC3 (stereo not given),-4.39,-2.21,-1.65,-13.2,3.53
Cc1cc(F)ccc1NS(=O)(=O)c1ccc2[nH]c3c(c2c1)CCCC3,-5.09,2.21,-4.21,-30.3,-0.434
COc1ccc(-c2ccc3ncc(Nc4ccncc4)n3n2)cn1,-7.58,-5.45,-5.7,-10.8,3.3
Cc1ccc(C)c(S(=O)(=O)c2nnn3c2nc(NCc2ccccc2)c2ccccc23)c1,0.597,2.04,4.01,4.19,-1.34
Cn1cnc(S(=O)(=O)N2CC(N(C3CCOCC3)S(C)(=O)=O)C2)c1,0.313,2.48,0.601,0.168,13.1

Compound,"activity change, negative = inhibition [1] [%]","activity change, negative = inhibition [2] [%]","activity change, negative = inhibition [3] [%]","activity change, negative = inhibition [4] [%]","activity change, negative = inhibition [5] [%]"
COc1cc(/C=C/C(=O)O[C@H]2[C@@H]3C=CO[C@@H](O[C@@H]4O[C@H](CO)[C@@H](O)[C@H](O)[C@H]4O)[C@@H]3[C@@]3(CO)O[C@@H]23)ccc1O,3.99,5.64,3.71,-5.44,2.02
Cc1cccc(N2C(=O)c3cc4sccc4n3CC2(C)C(=O)NC2CCCCC2C)c1C (stereo not given),0.462,0.73,2.97,5.79,0.029
CCOc1ccc(N2C(=O)c3c(C(=O)OC)ncn3CC2(C)C(=O)NCCCOC(C)C)cc1 (stereo not given),-1.3,0.43,6.42,2.67,4.59
CCCOc1cc2oc(=O)cc(-c3ccccc3)c2cc1Cl,-9.64,2.44,-4.52,-22.4,-9.85
CCC1CN(Cc2nc(CCOC)no2)CCC(=O)N1Cc1ccccc1 (stereo not given),-0.382,-4.09,-4.89,1.33,-0.931
CCCN1C(=O)c2cc(C(=O)NCCN(C)C)nn2CC1(C)C(=O)NC1CCCC1 (stereo not given),2.27,0,-0.338,2.58,2.81
CO/N=C(\C(=O)N[C@@H]1C(=O)N2C(C(=O)O)=C(CSc3nc(=O)c(O)nn3C)CSC12)c1csc(N)n1 (stereo not given in full),-18.4,9.75,7.67,-4.29,2.65
CC(c1ccccc1)N1C(=O)c2ccc(-c3ccccc3)n2CC1(C)C(=O)NC1CCCCCCC1 (stereo not given),0.955,2.38,0.43,-4.51,1.39
CC1COc2c(N3CCN(C)CC3)c(F)cc3c(=O)c(C(=O)O)cn1c23 (stereo not given),-1.68,9.05,5.5,-3.49,4.38
COc1ccc(CNc2nccc(CCC(F)(F)F)n2)cc1OC,-3.84,-1.99,-0.328,-9.05,1.8
O=C(/C=C/N1C[C@H]2C[C@@H]1CN2c1ccccn1)c1ccccc1O,6.56,–,6.48,-6.89,-0.165
CC(=O)c1ccc(Nc2nc3c(S(=O)(=O)c4ccccc4)nnn3c3ccccc23)cc1,0.132,0,2.29,7.35,1.85
O=c1[nH]c2cccnc2n1CCc1ccccc1,-21.7,-18.9,-8.65,-25.3,-20.1
CN1C[C@H]2CNC[C@@]2(C(=O)NCc2ccccc2OCc2ccccc2)C1,2.48,0.707,-4.72,-1.18,-4.18
COc1ccc([C@@H](NC(=O)c2cc3ncccn3n2)C2CC(O)C2)cn1 (stereo not given in full),-5.74,-5.76,-4.03,-11.5,-6.1
CC(C)CCn1c(=O)c2ccc(C(=O)NC3CCCC3)cc2n2c(=O)[nH]nc12,-2.96,0,4.83,-1.78,-5.49
CC(C)CN1C(=O)c2cccn2CC1CN (stereo not given),-2.45,0.732,-3.73,-5.42,11.9
Cc1ccc(NC(=O)N2CCn3cccc3C2C)c(C)c1 (stereo not given),-13.2,-2.13,-12.3,-18,-10.7
Cn1c(=O)c2ccc(C(=O)NC3CCCCC3)cc2n2c(=O)n(CC(=O)Nc3ccccc3F)nc12,4.21,0,11.4,-2.23,2.67
